From patent publication US8592383B2, “Cycloalkyl-fused tetrahydroquinolines as CRTH2 receptor modulators” (Merck Sharp & Dohme Corp., priority 2011, dated 2013)

molecular target: T1, hCRTH2 (Homo sapiens, UniProt Q9Y5Y4); test: biochemical; settings: Ki (nM), Table A; Radioligand Binding Assay A, [3H]PGD2, HEK-hCRTH2 membranes
T1 sequence (Q9Y5Y4 1-395): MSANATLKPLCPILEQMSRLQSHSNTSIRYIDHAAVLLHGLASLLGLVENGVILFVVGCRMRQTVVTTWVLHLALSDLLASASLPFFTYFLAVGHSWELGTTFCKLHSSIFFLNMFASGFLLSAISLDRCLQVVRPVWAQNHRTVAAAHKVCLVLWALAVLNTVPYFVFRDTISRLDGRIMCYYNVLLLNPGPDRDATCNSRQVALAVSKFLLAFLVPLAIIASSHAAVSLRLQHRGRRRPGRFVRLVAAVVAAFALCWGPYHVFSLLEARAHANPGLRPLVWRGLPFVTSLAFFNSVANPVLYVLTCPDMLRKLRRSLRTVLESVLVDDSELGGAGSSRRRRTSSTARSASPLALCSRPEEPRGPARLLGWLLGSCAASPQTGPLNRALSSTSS

Row | SMILES | Ki
1 | O=C(O)COC(=O)N(C1CC1)C1c2ccccc2N(c2nnc(Cc3ccc(F)cc3)o2)C2CCCC21 (racemic) [38E, [[[cyclopropyl[cis,cis-4-[5-[(4-fluorophenyl)methyl]-1,3,4-oxadiazol-2-yl]-2,3,3a,4,9,9a-hexahydro-1H-cyclopenta[b]quinoline-9-yl]amino]carbonyl]oxy]acetic acid] | 20.1 to 200 nM
2 | O=C(O)CCCN(C1CC1)[C@H]1c2cc(F)ccc2N(C(=O)OCc2ccccc2)[C@H]2CCC[C@H]21 (single isomer, unassigned) [compound 125] | 5.1 to 20 nM
3 | O=C(O)COC(=O)N(C1CC1)C1c2ccccc2N(C(=O)c2ccc(F)cc2)C2CCCC21 (single isomer, unassigned) [32M, [[[cyclopropyl[cis, cis-4-(4-fluorobenzoyl)-2,3,3a,4,9,9a-hexahydro-1H-cyclopenta[b]quinolin-9-yl]amino]carbonyl]oxy]acetic acid] | 1 to 5 nM
4 | O=C(O)CCC(=O)N(C1CC1)C1c2ccccc2N(C(=O)c2cccc(Oc3ccccc3)c2)C2CCCC21 (racemic) [17AK, 4-[cyclopropyl[cis,cis-2,3,3a,4,9,9a-hexahydro-4-(3-phenoxybenzoyl)-1H-cyclopenta[b]quinolin-9-yl]amino]-4-oxo-butanoic acid] | 1 to 5 nM
5 | O=C(O)CCC(=O)N(C1CC1)C1c2ccccc2N(C(=O)c2ccc3ccccc3c2)C2CCCC21 (racemic) [17Bi, 4-((cis,cis-4-(2-naphthoyl)-2,3,3a,4,9,9a-hexahydro-1H-cyclopenta[b]quinolin-9-yl)(cyclopropyl)amino)-4-oxobutanoic acid] | 5.1 to 20 nM
6 | O=C(O)CCC(=O)N(C1CC1)C1c2ccccc2N(C(=O)c2ccc(C3CC3)cc2)C2CCCC21 (single isomer, unassigned) [compound 162, 4-(cyclopropyl(cis, cis-4-(4-cyclopropylbenzoyl)-2,3,3a,4,9,9a-hexahydro-1H-eyclopenta[b]quinolin-9-yl)amino)-4-oxobutanoic acid] | 5.1 to 20 nM
7 | CN(CC(=O)O)C(=O)N(C1CC1)C1c2ccccc2N(C(=O)c2ccc(OC(F)(F)F)cc2)C2CCCC21 (single isomer, unassigned) [35H, N-[[cyclopropyl[cis, cis-2,3,3a,4,9,9a-hexahydro-4-[4-(trifluoromethoxy)benzoyl]-1H-cyclopenta[b]quinolin-9-yl]amino]carbonyl]-N-methylglycine] | 5.1 to 20 nM
8 | O=C(O)CCC(=O)N(C1CC1)C1c2cc(F)ccc2N(C(=O)OCc2ccc(C(F)(F)F)cc2)C2CCC21 (single isomer, unassigned) [compound 100, 3-[[4-(trifluoromethyl)phenyl]methyl] cis, cis-[(3-carboxy-1-oxopropyl)cyclopropylamino]-6-fluoro-2,2a,8,8a-tetrahydrocyclobuta[b] quinoline-3(1H)-carboxylate] | 1 to 5 nM
9 | CCN(C(=O)CCC(=O)O)C1c2ccccc2N(C(=O)OCc2ccc(F)c(F)c2)C2CCC12 (single isomer, unassigned) [compound 90, 4-((cis, cis-3-((3,4-difluorobenzyloxy)carbonyl)-1,2,2a,3,8,8a-hexahydrocyclobuta[b]quinolin-8-yl)(ethyl)amino)-4-oxobutanoic acid] | 20.1 to 200 nM
10 | O=C(O)CCCNC1c2ccccc2N(C(=O)c2ccc(OC(F)(F)F)cc2)C2CCCC12 (racemic) [44B, 4-[[cis,cis-2,3,3a,4,9,9a-hexahydro-4-[4-(trifluoromethoxy)benzoyl]-1H-cyclopenta[b]quinolin-9-yl]amino]butanoic acid] | 201 to 7500 nM
11 | O=C(O)CCC(=O)N(C1CC1)[C@H]1c2cc(F)ccc2N(C(=O)OCc2ccccc2)[C@H]2CCC[C@H]21 (single isomer, unassigned) [9B] | 5.1 to 20 nM
12 | C[C@H](OC(=O)N(C1CC1)C1c2ccccc2N(C(=O)OCc2ccccc2)C2CCCC21)C(=O)O (stereo partly drawn) [compound 32, 4-(Phenylmethyl)cis,cis-[[(1(S)-carboxyethoxy)carbonyl]cyclopropylamino]-1,2,3,3a,9,9a-hexahydro-4H-cyclopenta[b]quinoline-4-carboxylate] | 20.1 to 200 nM
13 | COC(=O)CCC(=O)N(CC1CC1)C1c2ccccc2N(C(=O)c2ccc(OC(F)(F)F)cc2)C2CCCC12 (racemic) [17J, methyl 4-[(cyclopropylmethyl)[cis,cis-2,3,3a,4,9,9a-hexahydro-4-[4-(trifluoromethoxy)benzoyl]-1H-cyclopenta[b]quinolin-9-yl]amino]-4-oxobutanoate] | 201 to 7500 nM
14 | O=C(O)CNC(=O)N(C1CC1)C1c2ccccc2N(C(=O)c2ccc(OC(F)(F)F)cc2)C2CCCC21 (racemic) [35K, N-[[cyclopropyl[cis,cis-2,3,3a,4,9,9a-hexahydro-4-[4-(trifluoromethoxy)benzoyl]-1H-cyclopenta[b]quinolin-9-yl]amino]carbonyl]glycine] | 5.1 to 20 nM
15 | O=C(O)CCC(=O)N(C1CC1)C1c2cc(-c3ccccc3)ccc2N(C(=O)OCc2ccccc2)C2CCC21 (single isomer, unassigned) [compound 99, 4-((cis, cis-3-(benzyloxycarbonyl)-6-phenyl-1,2,2a,3,8,8a-hexahydrocyclobuta[b]quinolin-8-yl)(cyclopropyl)amino)-4-oxobutanoic acid] | 201 to 7500 nM
16 | CCN(C(=O)CCC(=O)O)C1c2ccccc2N(C(=O)OCc2ccc(C(F)(F)F)cc2)C2CCCC12 (single isomer, unassigned) [compound 75, 4-[[4-(trifluoromethyl)phenyl]methyl] cis, cis-[(3-carboxy-1-oxopropyl)ethylamino]-1,2,3,3a,9,9a-hexahydro-4H-cyclopenta[b]quinoline-4-carboxylate] | 5.1 to 20 nM
17 | O=C(O)CCC(=O)N(C1CC1)C1c2ccc(F)cc2N(C(=O)OCc2ccccn2)C2CCCC21 (single isomer, unassigned) [compound 148, 4-(2-pyridinylmethyl) cis, cis-[(3-carboxy-1-oxopropyl)cyclopropylamino]-6-fluoro-1,2,3,3a,9,9a-hexahydro-4H-cyclopenta[b]quinoline-4-carboxylate] | 5.1 to 20 nM
18 | O=C(O)CCC(=O)N(C1CC1)C1c2ccccc2N(S(=O)(=O)c2ccc(Oc3ccccc3)cc2)C2CCCC12 (racemic) [24B, 4-[cyclopropyl[cis,cis-2,3,3a,4,9,9a-hexahydro-4-[(4-phenoxyphenyl)sulfonyl]-1H-cyclopenta[b]quinolin-9-yl]amino]-4-oxobutanoic acid] | 20.1 to 200 nM
19 | O=C(O)CCC(=O)N(C1CC1)C1c2ccccc2N(C(=O)Cc2ccccc2)C2CCCC21 (racemic) [17AS, 4-(cyclopropyl(cis,cis-4-(2-phenylacetyl)-2,3,3a,4,9,9a-hexahydro-1H-cyclopenta[b]quinolin-9-yl)amino)-4-oxobutanoic acid] | 20.1 to 200 nM
20 | Cn1c(C(=O)N2c3ccccc3C(N(C(=O)CCC(=O)O)C3CC3)C3CCCC32)nc2ccccc21 (racemic) [17DN, 4-[cyclopropyl[cis,cis-2,3,3a,4,9,9a-hexahydro-4-[(1-methyl-1H-benzimidazol-2-yl)carbonyl]-1H-cyclopenta[b]quinolin-9-yl]amino]-4-oxobutanoic acid] | 5.1 to 20 nM
21 | O=C(O)CCC(=O)N(C1CC1)C1c2ccccc2N(C(=O)Cc2ccc(OC(F)(F)F)cc2)C2CCCC21 (single isomer, unassigned) [17DH, 4-[cyclopropyl[cis,cis-2,3,3a,4,9,9a-hexahydro-4-[[4-(trifluoromethoxy)phenyl]acetyl]-1H-cyclopenta[b]quinolin-9-yl]amino]-4-oxobutanoic acid] | 5.1 to 20 nM
22 | CCN(C(=O)CCC(=O)O)C1c2cc(F)ccc2N(C(=O)c2ccc(SC(F)(F)F)cc2)C2CCC12 (single isomer, unassigned) [compound 164, 4-(ethyl(cis, cis-6-fluoro-3-(4-((trifluoromethyl)thio)benzoyl)-1,2,2a,3,8,8a-hexahydrocyclobuta[b]quinolin-8-yl)amino)-4-oxobutanoic acid] | 5.1 to 20 nM
23 | O=C(O)CCC(=O)N(C1CC1)C1c2ccccc2N(C(=O)OCc2cccs2)C2CCCC21 (single isomer, unassigned) [compound 114, 4-(2-thienylmethyl) cis, cis-[(3-carboxy-1-oxopropyl)cyclopropylamino]-1,2,3,3a,9,9a-hexahydro-4H-cyclopenta[b]quinoline-4-carboxylate] | 20.1 to 200 nM
24 | O=C(O)CCCN(C1CCC1)C1c2ccccc2N(C(=O)c2ccc(OC(F)(F)F)cc2)C2CCCC21 (single isomer, unassigned) [compound 70, 4-[cyclobutyl[cis, cis-2,3,3a,4,9,9a-hexahydro-4-[4-(trifluoromethoxy)benzoyl]-1H-cyclopenta[b]quinolin-9-yl]amino]butanoic acid] | 20.1 to 200 nM
25 | O=C(O)CCC(=O)N(C1CC1)C1c2cc(F)ccc2N(C(=O)OCc2cccc(F)c2)C2CCC21 (single isomer, unassigned) [compound 102, 3-[(3-fluorophenyl)methyl] cis, cis-[(3-carboxy-1-oxopropyl)cyclopropylamino]-6-fluoro-2,2a,8,8a-tetrahydrocyclobuta[b] quinoline-3(1H)-carboxylate] | 201 to 7500 nM
26 | C[C@H](OC(=O)N1c2cc(F)ccc2C(N(C(=O)CCC(=O)O)C2CC2)C2CCCC21)c1ccc(F)cc1 (single isomer, unassigned) [compound 146] | 1 to 5 nM
27 | O=C(O)CCC(=O)N(C1CC1)C1c2ccccc2N(C(=O)OCc2cccc3cccnc23)C2CCCC21 (single isomer, unassigned) [compound 79, (cis, cis)-4H-cyclopenta[b]quinoline-4-carboxylic acid, 9-[(3-carboxy-1-oxopropyl)cyclopropylamino]-1,2,3,3a,9,9a-hexahydro-, 4-(8-quinolinylmethyl) ester] | 20.1 to 200 nM
